Results from PubChem BioAssay AID624330 (Southern Research Specialized Biocontainment Screening …, 2012).
The whole screen tested about 340,000 compounds, of which about 2,100 (0.62%) were called active. The shares of active, inactive and inconclusive entries below differ from those in the screen.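 How the source made its calls: active means first-screen hits whose inhibition reached a set limit at any dose in the follow-up dose series; inconclusive means inhibition above the set first-screen limit but never retested; inactive means the rest.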

Target: Rac GTPase-activating protein 1 (Homo sapiens) (UniProt Q9H0H5)
UniProt Q9H0H5, sequence (Q9H0H5 whole entry, looked up): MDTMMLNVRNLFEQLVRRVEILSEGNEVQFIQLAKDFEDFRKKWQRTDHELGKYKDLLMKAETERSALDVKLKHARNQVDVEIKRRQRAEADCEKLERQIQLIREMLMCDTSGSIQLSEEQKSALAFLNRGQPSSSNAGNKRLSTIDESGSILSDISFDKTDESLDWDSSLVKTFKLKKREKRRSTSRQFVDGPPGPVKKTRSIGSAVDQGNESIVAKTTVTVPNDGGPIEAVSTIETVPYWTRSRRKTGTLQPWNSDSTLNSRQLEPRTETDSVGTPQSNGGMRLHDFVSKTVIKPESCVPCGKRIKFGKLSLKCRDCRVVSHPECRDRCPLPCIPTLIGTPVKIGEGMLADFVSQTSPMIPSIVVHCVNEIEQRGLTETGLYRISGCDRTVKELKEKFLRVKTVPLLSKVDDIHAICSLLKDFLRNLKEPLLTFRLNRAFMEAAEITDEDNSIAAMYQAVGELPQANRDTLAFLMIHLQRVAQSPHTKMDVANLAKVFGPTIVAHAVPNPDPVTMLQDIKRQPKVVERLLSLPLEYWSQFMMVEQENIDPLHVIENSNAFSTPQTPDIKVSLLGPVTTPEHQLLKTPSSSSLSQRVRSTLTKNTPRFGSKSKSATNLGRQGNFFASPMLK
Test: blockers of MgcRacGAP-driven Rac1 GTP hydrolysis – biochemical, ADP Hunter fluorescence, primary and confirmatory, confirmation (AID 624330);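 further: fluorescence reports GDP produced by GAP-driven GTP hydrolysis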
Details: MgcRacGAP-stimulated Rac1 GTP hydrolysis, at 30 µM, hits give high values, GST-tagged Rac1 F28L mutant substrate

| Structure (SMILES) | inhibition |
| --- | --- |
| COc1cc(CNCc2ccc3c(c2)OCO3)c([N+](=O)[O-])cc1OC | inconclusive: 35.8% |
| COc1cc(/C=C/C(=O)OCC(=O)N2CC(=O)Nc3ccccc32)ccc1O | inconclusive: 61.8% |
| COc1ccc(NC(=O)/C(Cl)=C(/Cl)S(=O)(=O)Cc2ccc(C)cc2)cn1 | inconclusive: 44.7% |
| CCOc1ccc(CCN2C(=S)N([C@@H](CC(C)C)CN3CCCC3CN3C(=S)NC[C@@H]3Cc3ccc(O)cc3)C[C@@H]2Cc2ccc(O)cc2)cc1 (stereo partly drawn) | inactive: 10.2% |
| COc1cc(/C=C(/C(=O)c2cccs2)c2nc3ccccc3[nH]2)ccc1O | inconclusive: 46.4% |
| C/C(=N\NC(=S)Nc1ccccc1C)c1ccc(O)cc1 | inconclusive: 31.9% |
| Cc1ccc2c(c1)c1cccc3c1n2CCN3CCC(N)=O | inconclusive: 73.7% |
| O=C(N/N=C/c1c(O)n(Cc2ccccc2)c(=O)c2ccccc12)c1cccnc1 | inconclusive: 32.9% |
| c1ccc(C2=Nc3ccccc3OC2)cc1 | inconclusive: 32.3% |
| Fc1ccc(CN2CCCCCC2)c(F)c1 | inconclusive: 34.7% |
| Cc1ccc(Nc2ccccc2N)cc1 | inconclusive: 55.1% |
| CCCS(=O)(=O)Nc1ccc(Nc2c3ccccc3nc3ccccc23)c(OC)c1 | inconclusive: 32.6% |
| O=C(CCOc1ccccc1)N1CCN(c2ccc(O)cc2)CC1 | inconclusive: 105% |
| N#CC(C#N)=C1C(=O)N(CCN2CCCCC2)c2ccccc21 | inactive: -11.4% |
| O=C(CN(C(=O)CCC(=O)Nc1ccccn1)C1CCCC1)NCc1ccccc1 | inactive: 4.99% |
| COc1ccc(CN2CCN(C(=O)c3cccc(OC)c3OC)CC2)cc1OC | inconclusive: 34.6% |
| COc1cc(C(=O)N/N=C/c2ccc(OC(=O)c3ccccc3)c(OC)c2)ccc1O | inactive: 25.2% |
| CC(C)c1ccc(NC2CCCN(C(=O)c3cccc(N4CCNC4=O)c3)C2)cc1 (stereo not drawn) | inactive: 9.26% |
| NNC(=O)C(=O)Nc1ccc(O)cc1 | inconclusive: 63.9% |
| N#C/C(=C\c1ccccc1OCc1ccc(C(=O)O)cc1)C(=O)Nc1ccc(O)cc1 | inconclusive: 51% |

| Structure (SMILES) | inhibition |
| --- | --- |
| O=C(Nc1nc2c(s1)CCCC2)c1ccc2ncsc2c1 | inconclusive: 34.6% |
| Oc1ccc(-c2cn3ccccc3n2)cc1 | inconclusive: 99.2% |
| C=CCn1c(SCCNC(C)=O)nc2cc(-c3ccccc3)sc2c1=O | inactive: -6.43% |
| CCOc1ccc(/C=N/Nc2nc(=O)[nH]nc2C)cc1OC | inactive: 7.43% |
| CCSc1ccc2nnc(-c3cccc(F)c3)n2n1 | inactive: 6.86% |
| COc1ccc(NCC(O)Cn2cnc3c2c(=O)n(C)c(=O)n3C)cc1 (stereo not drawn) | inconclusive: 59.8% |
| COc1ccc(OC)c(CN2CCCCCC2)c1 | inconclusive: 33.9% |
| COc1ccc(OC)c(CN2CCC(Cc3ccccc3)CC2)c1 | inconclusive: 35.7% |
| O=C1/C(=C/C=C/c2ccco2)SC(=S)N1NS(=O)(=O)c1ccccc1 | inconclusive: 78.9% |
| Nc1n[nH]c(N)c1N=Nc1ccc(F)cc1 | inactive: 12.4% |
| Cc1ccc(S(=O)(=O)NNC(=O)CCC(=O)Nc2ccccc2Cl)cc1 | inactive: 7.64% |
| COc1cc(/C=N/N=C/c2cc(OC)c(O)c(OC)c2)cc(OC)c1O | inconclusive: 32.5% |
| COc1ccc(CN2CCN(S(=O)(=O)c3ccccc3)CC2)cc1Br | inconclusive: 33.5% |
| COc1cc(C(=O)Nc2ccc(O)cc2)ccc1OC(C)=O | inconclusive: 74.5% |
| C/C(=N\Nc1ccc(C(=O)O)cc1)c1ccc2c(c1)Nc1ccccc1S2 | inconclusive: 64.7% |
| O=C(NN1C(=O)/C(=C/C=C/c2ccco2)SC1=S)c1ccccc1O | inconclusive: 71.7% |
| Cc1nc(Cl)cc(N/N=C/c2ccc(O)cc2)n1 | inconclusive: 126% |
| CN(CCOc1ccccc1)CC(=O)Nc1ccc(S(=O)(=O)N2CCCC2)cc1 | inconclusive: 34.8% |
| Cc1ccc(S(=O)(=O)N2CCN(C(C)CC(=O)O)CC2)cc1 (stereo not drawn) | inconclusive: 34.7% |
| CC(=O)Nc1cc2c(cc1[N+](=O)[O-])-c1ccccc1C2O (stereo not drawn) | inconclusive: 38.2% |

| Structure (SMILES) | inhibition |
| --- | --- |
| Oc1ccc(/C=N/NC(=S)Nc2cccnc2)cc1 | inconclusive: 54.8% |
| CCN(CC)CCNc1cccc2sc3ccccc3c(=O)c12 | inactive: 19.4% |
| C=CCn1c(SCC(=O)c2ccc(O)c(O)c2)nnc1-c1cccnc1 | inconclusive: 44.5% |
| Cc1n[nH]c(C)c1N1C(=O)c2cccc3cc(Br)cc(c23)C1=O | inactive: 15.9% |
| Cc1ccc(S(=O)(=O)N2CCN(C(=O)Cn3nc(C)c([N+](=O)[O-])c3C)CC2)cc1 | inactive: 6.68% |
| O=C1/C(=C\c2ccc(O)cc2)CCC1CNc1ccc(Cl)cc1 (stereo not drawn) | inconclusive: 35.1% |
| Clc1nccnc1N/N=C/c1ccc(Br)cc1 | inactive: 13.4% |
| CC(NC(=O)c1ccccc1)C(=O)N/N=C/c1ccc(O)cc1 (stereo not drawn) | inactive: 27% |
| CC1(NC(=O)NCc2ccccc2)CCS(=O)(=O)C1 (stereo not drawn) | inactive: 10.2% |
| O=C(CN1CCN(Cc2ccccc2)C1=O)NCc1ccc(Cl)cc1 | inactive: 3.73% |
| CCN(CC)S(=O)(=O)c1cccc(C(=O)N/N=C(\C)c2ccc(O)cc2O)c1 | inconclusive: 32.8% |
| O=C(CCCn1c(SCC(=O)c2ccc(O)c(O)c2)nc2ccccc2c1=O)NCC1CCCO1 (stereo not drawn) | inconclusive: 70.5% |
| Cn1cnc([N+](=O)[O-])c1Oc1ccc2ccccc2c1 | inconclusive: 37.2% |
| COc1ccccc1N1CCN(C2CCN(S(=O)(=O)c3ccc4ccccc4c3)CC2)CC1 | inactive: 4.9% |
| CCN(CC)c1ccc(NC(=O)C2CC3CCC2C3)cc1 (stereo not drawn) | inconclusive: 57% |
| CCc1ccc(NC(=O)NCC2CCN(c3ccc(OC)cc3)C2)cc1 (stereo not drawn) | inactive: 10.4% |
| COc1cc(C=C(C(C)=O)C(C)=O)ccc1O | inconclusive: 67.7% |
| COc1cccc2c1C(=O)c1c(O)c3c(c(O)c1C2=O)C[C@@](O)(C(C)=O)C[C@@H]3O[C@H]1C[C@H](N)[C@H](O)[C@H](C)O1 | inconclusive: 32.8% |
